# Laboratory results published in the BET-seq Pho4 binding data (Le et al. 2018).
# The other results are listed elsewhere or left out. These are noisy estimates, calculated here from bound and input reads.
# Target: T1, Pho4 (S. cerevisiae) (UniProt P07270)
# T1 sequence: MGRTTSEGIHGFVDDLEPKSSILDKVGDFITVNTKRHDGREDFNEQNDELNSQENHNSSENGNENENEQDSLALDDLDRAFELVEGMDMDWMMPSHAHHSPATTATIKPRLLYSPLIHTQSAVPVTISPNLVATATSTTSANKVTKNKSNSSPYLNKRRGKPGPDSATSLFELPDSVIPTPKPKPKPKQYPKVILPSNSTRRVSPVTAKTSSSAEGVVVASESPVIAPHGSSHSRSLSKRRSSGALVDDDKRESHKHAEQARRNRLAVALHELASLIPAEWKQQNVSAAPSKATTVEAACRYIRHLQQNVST
# Assay: relative binding free energy (BET-seq); higher = weaker binding
# Conditions: reference: library average
row,Sequence,relative binding free energy
1,CTGAACACGTGGGTTG,-0.08 kcal/mol
2,AGGTGCACGTGGTGAT,-0.05 kcal/mol
3,CCTGACACGTGGGGTT,-0.08 kcal/mol
4,TCTGGCACGTGTTAAG,-0.01 kcal/mol
5,TCGGTCACGTGGTAAG,-0.03 kcal/mol
6,ATAGTCACGTGAGGTT,0.3 kcal/mol
7,AGGCTCACGTGAAAGT,0.5 kcal/mol
8,ACTTGCACGTGTGTTG,0.01 kcal/mol
9,CTGGTCACGTGGTTGT,0.1 kcal/mol
10,TTTTGCACGTGTGAGT,0.09 kcal/mol
11,TGCTACACGTGAGTGA,0.43 kcal/mol
12,TAGGGCACGTGTGTAG,-0.13 kcal/mol
13,TGCGACACGTGAGGTT,0.37 kcal/mol
14,TGTGACACGTGAAGCG,0.22 kcal/mol
15,GGGAGCACGTGTGGTA,0.01 kcal/mol
16,CACGTCACGTGTGGGT,0.17 kcal/mol
17,GTGGACACGTGGAGTG,0.11 kcal/mol
18,TGGCGCACGTGTGTGA,-0.14 kcal/mol
19,ATGTTCACGTGTGGTT,0.35 kcal/mol
20,TGTGGCACGTGCAAGG,-0.11 kcal/mol
21,TGTCTCACGTGTGTTG,0.18 kcal/mol
22,CGTAGCACGTGTTATG,-0.07 kcal/mol
23,TATTTCACGTGGAGAT,0.24 kcal/mol
24,TGGTTCACGTGGCAAG,0.29 kcal/mol
25,TAGTACACGTGCTGGG,-0.02 kcal/mol
26,GGGTGCACGTGTCTTG,0.08 kcal/mol

row,Sequence,relative binding free energy
1,AGGTTCACGTGCGTGC,0.2 kcal/mol
2,AGTCTCACGTGTGGAG,0.11 kcal/mol
3,CGTTTCACGTGTTTAG,0.22 kcal/mol
4,GGGATCACGTGGGATA,0.1 kcal/mol
5,TGCTTCACGTGTGGCT,0.14 kcal/mol
6,GAAGGCACGTGAGTTG,0.05 kcal/mol
7,TGGTACACGTGGTTTC,0.12 kcal/mol
8,CAAAGCACGTGGGTGT,-0.28 kcal/mol
9,GGAGGCACGTGGCTGA,-0.2 kcal/mol
10,TCAGGCACGTGGTTAT,-0.22 kcal/mol
11,GTGTTCACGTGATGGC,0.23 kcal/mol
12,TGTGCCACGTGTAATG,0.11 kcal/mol
13,TTTTACACGTGTTCTT,0.13 kcal/mol
14,TTCGACACGTGGGGCG,-0.24 kcal/mol
15,TATCGCACGTGGGAAT,-0.15 kcal/mol
16,CTTAGCACGTGGGTTT,-0.26 kcal/mol
17,AAAAACACGTGGGTGG,-0.17 kcal/mol
18,AGGTTCACGTGCAATG,0.28 kcal/mol
19,TTTTTCACGTGTAGCT,0.23 kcal/mol
20,TTATTCACGTGGAGAT,0.17 kcal/mol
21,GTGGTCACGTGTTGAC,0.14 kcal/mol
22,GTGGTCACGTGGATGG,0.11 kcal/mol
23,TGAATCACGTGTCGTT,0.16 kcal/mol
24,GTAGGCACGTGTGGTA,-0.04 kcal/mol
25,TAGGTCACGTGGCTCG,0 kcal/mol
26,TGTGTCACGTGGAGGT,0.09 kcal/mol

row,Sequence,relative binding free energy
1,GGGCACACGTGTAATG,0.18 kcal/mol
2,TGAATCACGTGAAGGT,0.37 kcal/mol
3,GGTCACACGTGTGTTG,-0.03 kcal/mol
4,AGAAACACGTGGGGGT,-0.02 kcal/mol
5,CATGACACGTGGGTGG,-0.12 kcal/mol
6,GGATACACGTGCGTTG,0 kcal/mol
7,TCATGCACGTGGAGTT,-0.02 kcal/mol
8,GTAATCACGTGGTCGA,0.13 kcal/mol
9,GGAACCACGTGGGGGG,-0.07 kcal/mol
10,TTCAGCACGTGAGGTG,0.25 kcal/mol
11,GTTACCACGTGGTGGT,-0.01 kcal/mol
12,TTTAACACGTGAGTAG,0.22 kcal/mol
13,TATGACACGTGAGTGA,0.12 kcal/mol
14,TTTAACACGTGAAGGG,0.25 kcal/mol
15,AAGGCCACGTGCGGGT,-0.21 kcal/mol
16,TATAACACGTGTGTGC,-0.05 kcal/mol
17,TGCGTCACGTGGCGAG,-0.06 kcal/mol
18,TGTCTCACGTGGTGCG,0 kcal/mol
19,AGAATCACGTGTTGAT,0.18 kcal/mol
20,GTTTTCACGTGGAAGG,0.26 kcal/mol
21,TGTTTCACGTGTTAAC,0.24 kcal/mol
22,GCTTGCACGTGTTAAG,0.1 kcal/mol
23,TTGGACACGTGTAATA,0.17 kcal/mol
24,ATTCTCACGTGATGGG,0.28 kcal/mol
25,GTTATCACGTGTCGTC,0.28 kcal/mol
26,GGATTCACGTGTTGAA,0.18 kcal/mol

row,Sequence,relative binding free energy
1,AAGTGCACGTGTTAAT,0.07 kcal/mol
2,TTCTACACGTGTTTAA,0.07 kcal/mol
3,TGGGACACGTGCGGTA,-0.05 kcal/mol
4,GGGGGCACGTGCAGGA,-0.14 kcal/mol
5,TATAGCACGTGGGAGG,-0.2 kcal/mol
6,TGTGGCACGTGCTCAG,-0.18 kcal/mol
7,TTTCTCACGTGGGATG,0.17 kcal/mol
8,AGGTGCACGTGATAAT,0.07 kcal/mol
9,TAGGGCACGTGACGGA,-0.05 kcal/mol
10,AGTGTCACGTGTTTTG,0.11 kcal/mol
11,GGGTTCACGTGTCGTA,0.37 kcal/mol
12,TGTGACACGTGTTGGG,0.03 kcal/mol
13,AGAGGCACGTGTGCGT,-0.09 kcal/mol
14,GGGGCCACGTGTTGTT,0.02 kcal/mol
15,GTTTACACGTGGTGTC,0.01 kcal/mol
16,GATGACACGTGTGCTT,0.19 kcal/mol
17,TAGATCACGTGTAGCG,0.15 kcal/mol
18,TTTAGCACGTGAGTGA,0.13 kcal/mol
19,TTGGACACGTGGTGCG,0.09 kcal/mol
20,GTTTACACGTGTTGAA,0.23 kcal/mol
21,GGTAGCACGTGGGTGG,-0.12 kcal/mol
22,CGGCTCACGTGGTGTT,0.08 kcal/mol
23,TGATTCACGTGAGGAT,0.46 kcal/mol
24,GGTAGCACGTGGGACG,-0.11 kcal/mol
25,AATTACACGTGGTCGT,0.03 kcal/mol
26,GTTGCCACGTGGTGTA,-0.22 kcal/mol

row,Sequence,relative binding free energy
1,TCTTTCACGTGAGGAG,0.32 kcal/mol
2,TGGCGCACGTGGATGG,-0.01 kcal/mol
3,CTTGACACGTGGTTGT,-0.02 kcal/mol
4,GGGTACACGTGTGTTT,0.15 kcal/mol
5,GGCCGCACGTGTGTGG,-0.09 kcal/mol
6,GTCGGCACGTGGCGTG,-0.08 kcal/mol
7,AAGATCACGTGATGTT,0.27 kcal/mol
8,ATAAACACGTGTTGTA,-0.13 kcal/mol
9,GAGGGCACGTGAGGTG,0.18 kcal/mol
10,AAATTCACGTGTCTAT,0.23 kcal/mol
11,AGTTACACGTGTAGGG,0.13 kcal/mol
12,TTCTACACGTGGGTTT,0 kcal/mol
13,GGACGCACGTGGTTTT,-0.11 kcal/mol
14,GGCAGCACGTGGAGGG,-0.11 kcal/mol
15,CGGGTCACGTGGTTCC,0.27 kcal/mol
16,ATATACACGTGGCTTG,0.04 kcal/mol
17,GTGCGCACGTGCATTG,0 kcal/mol
18,AGTTTCACGTGTGTAC,0.25 kcal/mol
19,ATGATCACGTGAGGCG,0.15 kcal/mol
20,GGTCACACGTGTAAGT,0.11 kcal/mol
21,ATGGTCACGTGCGCGG,-0.19 kcal/mol
22,TTGATCACGTGGTTTA,0.06 kcal/mol
23,GTATGCACGTGATTTG,0.24 kcal/mol
24,CAGTGCACGTGGTTAT,-0.07 kcal/mol
25,TTTTACACGTGCTGGT,0.05 kcal/mol
26,GAAAGCACGTGTGTGT,0.09 kcal/mol

row,Sequence,relative binding free energy
1,AACGGCACGTGTGTGT,-0.12 kcal/mol
2,GGTGGCACGTGCACGT,-0.08 kcal/mol
3,GGTGCCACGTGTGAAG,0.04 kcal/mol
4,CGGCACACGTGGTGTT,0 kcal/mol
5,GGTTACACGTGACGTT,0.36 kcal/mol
6,TGGATCACGTGGTGCT,0.16 kcal/mol
7,TGTATCACGTGGTACC,0.22 kcal/mol
8,TAGTTCACGTGCTTAT,0.26 kcal/mol
9,AGGCTCACGTGGGGGG,0.08 kcal/mol
10,TGTTGCACGTGGCAAT,-0.14 kcal/mol
11,TTATTCACGTGTTCGG,0.27 kcal/mol
12,AATGCCACGTGGGGTA,-0.25 kcal/mol
13,TTTTACACGTGAAGAT,0.36 kcal/mol
14,GTAAGCACGTGGGAGC,-0.05 kcal/mol
15,TGTGTCACGTGGGGGG,-0.05 kcal/mol
16,CGATTCACGTGATTTT,0.29 kcal/mol
17,GTGCGCACGTGGTGAG,-0.03 kcal/mol
18,TAAATCACGTGGAGTG,0.12 kcal/mol
19,GTCGGCACGTGAAAGT,0.18 kcal/mol
20,TGGCGCACGTGTGGAC,0.01 kcal/mol
21,TGGGTCACGTGTCAGG,0.19 kcal/mol
22,GTCGTCACGTGATTGT,0.22 kcal/mol
23,ATGGGCACGTGTGATA,-0.07 kcal/mol
24,GGGGCCACGTGGAGCG,-0.06 kcal/mol
25,TTTGGCACGTGATCTG,-0.05 kcal/mol
26,TCGCACACGTGTGGGT,0.05 kcal/mol

row,Sequence,relative binding free energy
1,ATATTCACGTGATGGA,0.36 kcal/mol
2,TGACGCACGTGGGGTT,-0.22 kcal/mol
3,TTTATCACGTGCTAGT,0.1 kcal/mol
4,CGTGTCACGTGTCGGG,0.12 kcal/mol
5,GTCGGCACGTGTCGTT,0 kcal/mol
6,GTATGCACGTGAGTTT,0.25 kcal/mol
7,TTGATCACGTGGGTAA,0.05 kcal/mol
8,AATAGCACGTGTCTGT,-0.02 kcal/mol
9,TGTGACACGTGGAGGG,-0.01 kcal/mol
10,GTACGCACGTGGTCGG,-0.17 kcal/mol
11,AGCCGCACGTGGTTGT,-0.08 kcal/mol
12,GTAGGCACGTGGGATT,-0.12 kcal/mol
13,TATGCCACGTGGGTGA,-0.12 kcal/mol
14,GTGTGCACGTGTTAGC,-0.01 kcal/mol
15,TGTGTCACGTGGTCTC,0.11 kcal/mol
16,CTTTTCACGTGTAGAG,0.23 kcal/mol
17,TGTAGCACGTGCGGTG,-0.16 kcal/mol
18,GGGCTCACGTGGTGAG,0.2 kcal/mol
19,TGGCGCACGTGCAGGT,-0.04 kcal/mol
20,GAGGGCACGTGGGTTC,-0.18 kcal/mol
21,CGGTGCACGTGAGTGA,0.23 kcal/mol
22,GGTGCCACGTGGGCAT,-0.13 kcal/mol
23,TTAGACACGTGTGGGT,0.02 kcal/mol
24,TAATGCACGTGATTGA,0.17 kcal/mol
25,ATTGTCACGTGATGTT,0.27 kcal/mol
26,TGATTCACGTGTTTAC,0.27 kcal/mol

row,Sequence,relative binding free energy
1,ATTTGCACGTGAGGCA,0.26 kcal/mol
2,TAAGGCACGTGACTGG,-0.01 kcal/mol
3,TGGAGCACGTGGGTCA,-0.24 kcal/mol
4,AGAATCACGTGTGTTC,0.25 kcal/mol
5,ATATGCACGTGTGATT,0.04 kcal/mol
6,TGTGTCACGTGTATAT,0.17 kcal/mol
7,AAGTGCACGTGCGGAG,-0.09 kcal/mol
8,TCAGGCACGTGTGGAA,-0.1 kcal/mol
9,AAATTCACGTGGATGA,0.35 kcal/mol
10,TGGCGCACGTGGGTGT,-0.3 kcal/mol
11,CAGGGCACGTGGGTTA,-0.17 kcal/mol
12,TGTTTCACGTGGGATC,0.19 kcal/mol
13,CGTAGCACGTGGTTGA,-0.01 kcal/mol
14,TAGCACACGTGTGAGT,0.19 kcal/mol
15,AAGGTCACGTGCTAGT,0.03 kcal/mol
16,TGTGTCACGTGTGACG,0.01 kcal/mol
17,TTGTACACGTGAGTTA,0.39 kcal/mol
18,AATTTCACGTGTTTAC,0.19 kcal/mol
19,ATTGGCACGTGTTTTG,0 kcal/mol
20,TTAAACACGTGGGGGG,-0.12 kcal/mol
21,ATTGTCACGTGGAGAT,-0.02 kcal/mol
22,CGTTTCACGTGTAAAG,0.41 kcal/mol
23,TTTTACACGTGAACTG,0.39 kcal/mol
24,GATGTCACGTGACTGG,0.32 kcal/mol
25,CATGGCACGTGATGGA,0.09 kcal/mol
26,TTTTTCACGTGGGGCA,0.18 kcal/mol

row,Sequence,relative binding free energy
1,GATTACACGTGTCGTT,0.09 kcal/mol
2,GGAGGCACGTGGAAGC,0.12 kcal/mol
3,GTGGACACGTGGTAAT,-0.02 kcal/mol
4,TTTGCCACGTGGGGTT,-0.09 kcal/mol
5,TAGGGCACGTGGGATA,-0.13 kcal/mol
6,TGCATCACGTGGGAAG,0.09 kcal/mol
7,ATTTACACGTGCGAGT,0.14 kcal/mol
8,CTGAACACGTGTGTGT,-0.04 kcal/mol
9,GGGATCACGTGATAAT,0.42 kcal/mol
10,ATTAGCACGTGGTAGC,-0.18 kcal/mol
11,ATGGACACGTGGGATA,0 kcal/mol
12,ACTTGCACGTGTTAGT,-0.13 kcal/mol
13,GTTTCCACGTGATTGT,0.16 kcal/mol
14,AGTATCACGTGGCTAG,0.05 kcal/mol
15,ATGGTCACGTGAGCAT,0.16 kcal/mol
16,TATGTCACGTGCTTAT,0.04 kcal/mol
17,TTTGTCACGTGACGTG,0.2 kcal/mol
18,ATAGTCACGTGTAGTC,0.07 kcal/mol
19,GTGGGCACGTGGGCGT,-0.11 kcal/mol
20,TAGGGCACGTGTAGTC,-0.08 kcal/mol
21,CTCGGCACGTGCGGGT,-0.19 kcal/mol
22,TTACGCACGTGGTTTG,-0.09 kcal/mol
